Measured values published in PubChem BioAssay AID588855 (National Center for Advancing Translational Sciences (NCATS), 2011).
Hit rate of the full screen: of about 410,000 compounds, about 5,000 (1.2%) were called active. The inconclusive results got no clear call from the source; some entries with a clear call stand among them for comparison. The call rests on the fitted dose curve; in most records, active means well fitted inhibition curve with a large enough effect; inconclusive means small, poorly fitted or top-dose-only effect; inactive means no such curve, though single readings can be large or run the other way. A potency beside an inconclusive call is a rough fit, not a confirmed value.

experiment: qHTS for Inhibitors of TGF-b; conditions: HepG2 CAGA-GFP TGF-b/SMAD3 reporter, GFP fluorescence, 18 h, TGF-beta stimulated, 500 pg/mL final; series mostly up to 46.1 µM; further: nearly all actives have a fitted effect of over 65% in size
How it was run: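 Read-out: total well GFP (ex488/em500-530) summed from mean per-cell fluorescence. Cells: HEPG2 CAGA-GFP, 1% FBS DMEM, 18 h at 37 degrees C with 500 pg/mL final TGF-beta. Unstimulated wells served as the full-inhibition control; stimulated DMSO wells = 0%.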
Potency means the concentration at half of the fitted maximal effect; tags describe the fitted curve by direction and shape.

Q: Which Potency does the source give for `Oc1c(C(c2ccc(Cl)cc2Cl)N2CCN(c3ccccc3)CC2)sc2nc(-c3ccco3)nn12` (stereo unspecified) here?
A: inconclusive: 35.5 µM [inhibitor, single point]

Q: For `N#Cc1ccc(OC(=O)C2CCN(C3=NS(=O)(=O)c4ccccc43)CC2)cc1`, which Potency is on record?
A: inactive

Q: For `Cc1cccc(OCc2nnc(SCC(=O)N(C(C)C)C(C)C)n2Cc2ccco2)c1C`, which Potency is on record?
A: inactive

Q: With `O=C(NN1C(=O)/C(=C/c2cccnc2)SC1=S)C(c1ccccc1)c1ccccc1` as the compound, how does the Potency read?
A: inconclusive: 35.5 µM [inhibitor, single point]

Q: Which Potency does the source give for `CCOC(=O)N1CCN(C(=O)c2cccc(NS(=O)(=O)c3ccc(F)c(F)c3)c2)CC1` here?
A: inconclusive: 3.55 µM [inhibitor, single point]

Q: For `COCCn1nnnc1SCC(=O)NCc1ccc2c(c1)OCO2`, which Potency is on record?
A: inconclusive: 22.4 µM [inhibitor, single point]

Q: Which Potency does the source give for `COc1ccc(Nc2nnc(-c3ccc(N4CCOCC4)c([N+](=O)[O-])c3)c3ccccc23)cc1` here?
A: inconclusive: 7.08 µM [inhibitor, full curve]

Q: For `COC1=CC(=Cc2c(N)n3nc(CC(=O)N4CCOCC4)sc3nc2=O)C=C(OC)C1=O`, which Potency is on record?
A: inconclusive: 35.5 µM [inhibitor, single point]

Q: For `Nc1c(C(=O)Nc2ccccc2)sc2nc3c(c(-c4ccco4)c12)CCCC3`, which Potency is on record?
A: inactive

Q: With `Cc1cccc(OCc2nc(-c3ccccn3)n[nH]2)c1` as the compound, how does the Potency read?
A: inconclusive: 35.5 µM [inhibitor, single point]

Q: Which Potency does the source give for `Cc1ccc2nsnc2c1S(=O)(=O)NCc1ccc2c(c1)OCO2` here?
A: inconclusive: 22.4 µM [inhibitor, single point]

Q: With `O=C(Nc1cccc(C(F)(F)F)c1)C1Cc2c(-c3ccco3)ccnc2O1` (stereo unspecified) as the compound, how does the Potency read?
A: inconclusive: 35.5 µM [inhibitor, single point]

Q: For `Cc1ccc(Nc2nc(N)c3ccccc3n2)cc1Cl`, which Potency is on record?
A: inconclusive: 22.4 µM [inhibitor, single point]

Q: With `Oc1ccc2ccccc2c1C1Nc2cccc3cccc(c23)N1` as the compound, how does the Potency read?
A: inconclusive: 25.1 µM [inhibitor, single point]

Q: With `Cc1ccc(CNC(=O)C2CCN(S(=O)(=O)c3c(C)noc3/C=C/c3cccs3)CC2)cc1` as the compound, how does the Potency read?
A: inconclusive: 35.5 µM [inhibitor, partial curve, poor fit]

Q: With `O=C(OCC(=O)N1CCCc2ccccc21)c1ccccc1[N+](=O)[O-]` as the compound, how does the Potency read?
A: inconclusive: 15.8 µM [inhibitor, single point]

Q: For `O=[N+]([O-])c1ccc2oc(C(O)c3cccc(Cl)c3)cc2c1` (stereo unspecified), which Potency is on record?
A: inconclusive: 35.5 µM [inhibitor, single point]

Q: With `Cc1c(/C=N/NC(=O)c2cccnc2)c2ccccc2n1Cc1ccccc1` as the compound, how does the Potency read?
A: inconclusive: 11.2 µM [inhibitor, partial curve, poor fit]

Q: For `O=[N+]([O-])c1cc(-c2ccccc2)cc([N+](=O)[O-])c1O`, which Potency is on record?
A: inconclusive: 35.5 µM [inhibitor, single point]

Q: With `O=C1C=CC2(C=C1)O[C@H](Cc1ccccc1)[C@@H](Cc1ccccc1)O2` as the compound, how does the Potency read?
A: active: 4.47 µM

Q: Which Potency does the source give for `COC(=O)C1=C(c2ccccc2)c2ccccc2S(=O)(=O)N1CC(=O)Nc1ccc(F)c(F)c1` here?
A: inconclusive: 20 µM [inhibitor, single point]

Q: Which Potency does the source give for `CCC1(C)Cc2nc3[nH]c(=S)n(-c4ccccc4C)c(=O)c3cc2CO1` (stereo unspecified) here?
A: inactive

Q: With `CCOC(=O)c1cnc2ccccc2c1NCCc1ccc(OC)c(OC)c1` as the compound, how does the Potency read?
A: inconclusive: 11.2 µM [inhibitor, partial curve, poor fit]

Q: Which Potency does the source give for `COc1ccccc1Nc1nc(C)cc(C)c1C(N)=O` here?
A: inconclusive: 35.5 µM [inhibitor, single point]

Q: With `C[C@H](CO)N1C[C@H](C)[C@@H](CN(C)S(C)(=O)=O)Oc2ccc(NC(=O)C3CCCCC3)cc2C1=O` as the compound, how does the Potency read?
A: inconclusive: 0.562 µM [inhibitor, partial curve, poor fit]

Q: With `O=C1CCC(=O)N1OCCOc1ccc2c(c1)CCC2` as the compound, how does the Potency read?
A: inconclusive: 5.62 µM [inhibitor, single point]

Q: Which Potency does the source give for `O=C1c2ccccc2C2(c3ccccc3)NCCN12` (stereo unspecified) here?
A: inactive

Q: For `CCOc1ccc(N=Nc2cc(C(C)C)ccc2O)cc1`, which Potency is on record?
A: inactive

Q: Which Potency does the source give for `Cc1ccc(S(=O)(=O)Nc2nc3ccccc3nc2NCc2ccco2)cc1C` here?
A: inconclusive: 35.5 µM [inhibitor, single point]

Q: With `Cc1c(C(=O)c2ccc3c(c2)OCO3)ccc2c1OCO2` as the compound, how does the Potency read?
A: inconclusive: 31.6 µM [inhibitor, single point]

Q: Which Potency does the source give for `Cc1onc(-c2ccccc2Cl)c1C(=O)Oc1cccc2cccnc12` here?
A: inconclusive: 35.5 µM [inhibitor, single point]

Q: With `O=c1[nH]c(-c2ccccn2)nc2ccccc12` as the compound, how does the Potency read?
A: inconclusive: 10 µM [inhibitor, partial curve, poor fit]

Q: For `Cc1nc2ccc(NS(=O)(=O)c3ccc4c(c3)OCCO4)cc2s1`, which Potency is on record?
A: inconclusive: 11.2 µM [inhibitor, partial curve]

Q: Which Potency does the source give for `COc1ccc(NC(=O)CN2CCCN(Cc3ccc(Cl)cc3)S2(=O)=O)cc1Cl` here?
A: inconclusive: 12.6 µM [inhibitor, partial curve, poor fit]

Q: Which Potency does the source give for `CCN1CCN(C2=C(NS(=O)(=O)c3ccc(C)cc3)C(=O)c3ccccc3C2=O)CC1` here?
A: active: 12.6 µM

Q: For `CC(OC(=O)/C=C/c1ccc2ccccc2n1)C(=O)N(C)c1ccccc1` (stereo unspecified), which Potency is on record?
A: inactive

Q: For `Cc1cccc2sc(=S)[nH]c12`, which Potency is on record?
A: inconclusive: 2.24 µM [inhibitor, partial curve, poor fit]

Q: For `C(=C\c1ccccc1)/CN1CCN(C(c2ccccc2)c2nnnn2C2CCCC2)CC1` (stereo unspecified), which Potency is on record?
A: inconclusive: 12.6 µM [inhibitor, single point]

Q: Which Potency does the source give for `CCN(CC)CCNC(=O)c1c(C)n(-c2ccccc2)c2cc(Br)c(OC)cc12` here?
A: inconclusive: 35.5 µM [inhibitor, single point]

Q: For `O=C(NCC(c1cccnc1)N1CCN(c2ccc(F)cc2)CC1)OCc1ccccc1` (stereo unspecified), which Potency is on record?
A: inconclusive: 0.891 µM [inhibitor, full curve, poor fit]

Q: With `COc1ccc(Br)cc1C(C[N+](=O)[O-])c1c(N)n(C)c(=O)n(C)c1=O` (stereo unspecified) as the compound, how does the Potency read?
A: active: 10 µM
